Measured values reported in PubChem BioAssay AID2147 (National Center for Advancing Translational Sciences (NCATS), 2009).
The campaign covered roughly 230,000 compounds. About 3,600 (1.6%) were called active. The shares of active, inactive and inconclusive entries below differ from those in the screen. Calls come from the whole dose curve; as a rule, active = well fitted inhibition curve with a large enough effect (not every such curve was filed as active); inconclusive = small, poorly fitted or top-dose-only effect, or another doubt; inactive = no such curve, though single readings can be large or run the other way. Potencies of inconclusive entries are doubtful fits and often do not repeat.

What follows are molecules tested against Lysine-specific demethylase 4E (Homo sapiens) (UniProt B2RXH2) (assay: qHTS Assay for Inhibitors of Human Jumonji Domain Containing 2E (JMJD2E)). Conditions: JMJD2E catalytic domain, FDH-coupled NADH fluorescence (FDH is formaldehyde dehydrogenase); series mostly up to 57.1 µM.
UniProt B2RXH2, sequence (B2RXH2 whole entry, looked up, the tested form may be a part): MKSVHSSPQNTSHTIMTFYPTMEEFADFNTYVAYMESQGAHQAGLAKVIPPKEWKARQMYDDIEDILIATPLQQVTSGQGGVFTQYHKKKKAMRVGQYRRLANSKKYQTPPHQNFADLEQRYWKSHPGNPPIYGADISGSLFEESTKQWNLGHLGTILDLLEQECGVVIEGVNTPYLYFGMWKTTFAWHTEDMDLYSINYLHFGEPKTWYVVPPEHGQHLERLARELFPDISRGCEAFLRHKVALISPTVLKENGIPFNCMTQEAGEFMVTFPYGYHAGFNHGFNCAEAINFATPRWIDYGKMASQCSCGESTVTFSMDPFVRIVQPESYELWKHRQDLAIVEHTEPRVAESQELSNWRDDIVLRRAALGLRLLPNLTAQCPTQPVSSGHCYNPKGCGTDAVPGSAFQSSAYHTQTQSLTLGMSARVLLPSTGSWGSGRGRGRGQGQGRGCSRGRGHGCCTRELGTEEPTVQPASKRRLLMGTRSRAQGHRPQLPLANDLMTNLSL
Note: nearly all actives have a fitted effect of over 50% in size.
Potency is the fitted concentration of half-maximal effect; tags give direction and shape of the fitted curve.

Row | SMILES | Potency
1 | CC1CCCN(C(=O)COC(=O)c2n[nH]c3ccccc23)C1 (stereo not given) | inconclusive: 31.6 µM [inhibitor, single point]
2 | CC1CN(CCCCOc2ccc3ccccc3c2)CC(C)O1 (stereo not given) | inconclusive: 35.5 µM [inhibitor, single point]
3 | Cc1ccc(CSC2=Nc3ccccc3C3=NC(CCC(=O)NCc4ccco4)C(=O)N23)cc1 (stereo not given) | inconclusive: 35.5 µM [inhibitor, single point]
4 | COc1cccc(N=Cc2ccc(O)cc2O)c1 | inactive
5 | COc1cc(CNC(C)(C)CO)ccc1OCC(=O)NC(C)(C)C | inactive
6 | CCCCNc1nc(C)nc2c1nc(-c1ccccc1)n2CCN1CCCC1 | inconclusive: 28.2 µM [inhibitor, partial curve]
7 | Cc1ccc(NC(=O)CN2C(=O)N/C(=C/c3ccc(C)o3)C2=O)cc1 | inconclusive: 25.1 µM [inhibitor, single point]
8 | O=[N+]([O-])c1ccc(Sc2n[nH]c(-c3ccccc3)n2)nc1 | inconclusive: 39.8 µM [inhibitor, single point]
9 | CCOC(=O)CNc1nnc(SCC(=O)OCC)[nH]c1=O | inactive
10 | COc1ccc(/C=N/Nc2ncnc3scc(-c4ccccc4)c23)cc1OC | inconclusive: 22.4 µM [inhibitor, partial curve]
11 | CCOc1ccc(N2C(=O)CC(Sc3nc(CC(C)C)ccc3C#N)C2=O)cc1 (stereo not given) | inconclusive: 39.8 µM [inhibitor, single point]
12 | COc1cc(C(=O)CSc2nnc(-c3ccc(O)cc3)n2CC2CCCO2)ccc1NC(C)=O (stereo not given) | inconclusive: 31.6 µM [inhibitor, single point]
13 | Cc1ccc(COc2ccc(/C=N/NC(=O)c3nnn(-c4nonc4N)c3COc3ccc(F)cc3)cc2)cc1 | inconclusive: 5.01 µM [inhibitor, single point]
14 | Cc1ccc(-n2c(C)cc(/C=N/NC(=O)c3ccc(CN4CCOCC4)cc3)c2C)cc1 | inconclusive: 39.8 µM [inhibitor, single point]
15 | Cc1cc(C)nc(SCCc2ccncc2)n1 | inconclusive: 39.8 µM [inhibitor, single point]
16 | COc1ccc2c(c1)CC/C(=C\C=C\c1ccccc1OC)C2=O | inactive
17 | O=C(Nc1ccc(C(=O)O)cc1)Nc1cccc([N+](=O)[O-])c1 | inactive
18 | CC(=O)Nc1ccc(OCCOc2ccc(/C=C3/C(=N)N4C=CSC4=NC3=O)cc2)cc1 | inconclusive: 5.62 µM [inhibitor, single point]
19 | CCCn1c(=O)c2[nH]c(-c3ccc(OCC(=O)Nc4ccc(C#N)cc4)cc3)nc2n(CCC)c1=O | inconclusive: 35.5 µM [inhibitor, single point]
20 | C=CCn1c(-c2sc(-c3ccccc3)nc2C)n[nH]c1=S | inconclusive: 39.8 µM [inhibitor, single point]
21 | O=C(O)CCC(=O)N1N=C(c2cccs2)CC1c1cn(-c2ccccc2)nc1-c1ccccc1 (stereo not given) | inconclusive: 25.1 µM [inhibitor, partial curve]
22 | CCOC(=O)Cn1nc(/C=C/c2ccc(C(C)C)cc2)ccc1=O | inconclusive: 28.2 µM [inhibitor, partial curve]
23 | COc1ccc(Cc2nc3c4c(ncn3n2)Oc2c(ccc3ccccc23)C4c2ccc(OC)c(OC)c2)cc1 (stereo not given) | inconclusive: 12.6 µM [inhibitor, partial curve]
24 | CC1(C)CC(=O)C(c2c[nH]c3ccccc23)C(=O)C1 | inactive

Row | SMILES | Potency
25 | CCCCNC(=O)CCC(=O)Nc1ccc2nc(N3CCN(C)CC3)cc(C)c2c1 | inconclusive: 25.1 µM [inhibitor, partial curve]
26 | COC(=O)/C(=N\Nc1ccc(Cl)cc1)Sc1nnc(-c2ccc(OC)cc2)n1C | inactive
27 | Cc1c(C(=O)Nc2ccncc2)sc2nc(-c3ccc(F)cc3)cn12 | inconclusive: 35.5 µM [inhibitor, single point]
28 | COc1cccc(Nc2nc3ccc(C(=O)c4ccccc4)cc3n3cnnc23)c1 | inconclusive: 39.8 µM [inhibitor, single point]
29 | FC(F)(F)c1cc(-c2ccccc2)nc2nc(N3CCOCC3)sc12 | inconclusive: 8.91 µM [inhibitor, partial curve]
30 | CCOc1ccc(-c2nc(CSc3nnc(N)s3)cs2)cc1OC | inconclusive: 35.5 µM [inhibitor, single point]
31 | O=C(Nc1cccc(-c2cn3c(n2)SCC3)c1)c1ccc2ccccc2n1 | inactive
32 | COc1cc2c(cc1OC)CN(C(=O)CSc1nc(N)c(C#N)cc1C#N)CC2 | inconclusive: 28.2 µM [inhibitor, partial curve]
33 | CCN(C(=O)COC(=O)COc1ccc2c(C)cc(=O)oc2c1)C1CCS(=O)(=O)C1 (stereo not given) | inconclusive: 14.1 µM [inhibitor, partial curve]
34 | C[C@H]1C(O)[C@@]23CCC4C5(C=[N+](CCO)C[C@]4(C)CCC5)C2C[C@@H]1C3 (stereo not given in full) | inactive
35 | COc1ccccc1/C=C/C=N/NC(=O)c1ccco1 | inconclusive: 39.8 µM [inhibitor, single point]
36 | CCCCCCN(CCCCCC)C(=O)Cc1c(-c2ccc(Cl)cc2)[nH]c2ccc(Cl)cc12 | inconclusive: 12.6 µM [inhibitor, full curve]
37 | Cc1ccc(CN2CCSc3ccc(C(=O)NCc4ccco4)cc32)cc1 | inconclusive: 28.2 µM [inhibitor, partial curve]
38 | CCN1C(C#N)=C(C#N)N=C(C)CC1(C)C | inconclusive: 39.8 µM [inhibitor, single point]
39 | CC(C)Cc1cc(C(=O)Nc2cc(Cl)ccc2Cl)no1 | inactive
40 | CNC(=O)c1nnsc1S(=O)(=O)c1ccc(Cl)cc1 | inactive
41 | O=C(c1ccco1)N1CCc2ccccc21 | inactive
42 | COc1ccc(C2C3=C(CC(C)(C)CC3=O)Nc3n[nH]c(C)c32)cc1 (stereo not given) | inconclusive: 31.6 µM [inhibitor, partial curve]
43 | COc1ccc(C(=O)NC(=S)N2CC(C)OC(C)C2)cc1OC (stereo not given) | inactive
44 | O=C1/C(=C/c2ccco2)SC(=S)N1c1cccnc1 | inconclusive: 35.5 µM [inhibitor, single point]
45 | Cc1cccc2c(=O)cc(C)n(CC(=O)N3CCOCC3)c12 | inconclusive: 39.8 µM [inhibitor, single point]
46 | COC(=O)c1ccccc1NC(=S)N(Cc1ccc2c(c1)OCO2)Cc1cc2cc(C)ccc2[nH]c1=O | inconclusive: 28.2 µM [inhibitor, single point]
47 | CC(=O)N(Cc1ccc(F)cc1)C1=C(NCCc2ccccc2)C(=O)c2ccccc2C1=O | inconclusive: 20 µM [inhibitor, partial curve]
48 | CC(C)CN(Cc1c(O)ccc2ccccc12)CC(C)C | inconclusive: 31.6 µM [inhibitor, partial curve]

Row | SMILES | Potency
49 | Cc1n[nH]c(=S)n1-c1ccc(Cl)cc1 | inconclusive: 39.8 µM [inhibitor, single point]
50 | Cc1cccc(-n2ncc3c(N(C)Cc4ccccc4)ncnc32)c1 | inconclusive: 35.5 µM [inhibitor, single point]
51 | CCOC(=O)c1cnc2cc(-c3ccc(C)cc3)nn2c1-c1ccccc1 | inconclusive: 35.5 µM [inhibitor, single point]
52 | O=C(OCc1ccc(Br)cc1)c1ccncc1 | inconclusive: 39.8 µM [inhibitor, single point]
53 | O=C1OCCC1Sc1nnc(-c2ccco2)o1 (stereo not given) | inactive
54 | CCCCNC(=O)CC1N=C2c3ccccc3N=C(SCC(=O)Nc3cccc(OC)c3)N2C1=O (stereo not given) | inconclusive: 28.2 µM [inhibitor, single point]
55 | COc1ccc(-c2cc(C#N)nc(N3CCN(C)CC3)n2)cc1 | inconclusive: 39.8 µM [inhibitor, single point]
56 | COc1ccc(C2N(C(=O)N3CCOCC3)CCN2S(=O)(=O)c2ccc(C)cc2)cc1 (stereo not given) | inactive
57 | COc1ccc(N2C(=O)CC(Sc3n[nH]c(-c4ccccc4)n3)C2=O)cc1 (stereo not given) | inactive
58 | O=[N+]([O-])c1ccc2c(c1)nc1n2CCCCC1 | inactive
59 | COc1ccc(C(=O)C(/C=N/O)=N/Nc2ccc(F)cc2)cc1 | inactive
60 | Cc1nc(S(=O)(=O)Nc2ccccc2C(=O)NCC2CC2)cn1C | inconclusive: 25.1 µM [inhibitor, partial curve]
61 | CCc1cc(C(=O)N2CCCC(CCC(=O)NCc3cccc(OC)c3)C2)no1 (stereo not given) | inactive
62 | Brc1ccc(-c2csc(-c3ccncc3)n2)cc1 | inconclusive: 35.5 µM [inhibitor, single point]
63 | CCCS(=O)(=O)Nc1ccc(-c2ccc3nnc(C)n3n2)cc1 | inconclusive: 28.2 µM [inhibitor, single point]
64 | Cc1ccc2[nH]c(=O)c(CN(CCO)C(=O)NCc3ccccc3)cc2c1 | inconclusive: 35.5 µM [inhibitor, single point]
65 | Cc1cccc(NC(=O)CCCCCN2C(=O)c3ccccc3C2=O)n1 | inactive
66 | Cc1noc(C)c1COc1ccc2ccc(=O)oc2c1 | inconclusive: 28.2 µM [inhibitor, partial curve]
67 | Cn1c(C(=O)NCCCN2CCN(c3ccccc3F)CC2)cc2c(=O)[nH]c3ccccc3c21 | inconclusive: 20 µM [inhibitor, single point]
68 | CCN(CC)c1ccc2cc(NC(=O)CCC(=O)O)c(=O)oc2c1 | inconclusive: 28.2 µM [inhibitor, partial curve]
69 | CC1(C)CC(C(CCN(Cc2ccccc2)C(=O)c2ccco2)c2ccc(F)cc2)CCO1 (stereo not given) | inactive
70 | Cn1nc(C(F)(F)F)c(C(=O)Nc2ccc(F)cc2F)c1Sc1ccc(Cl)cc1 | inactive
